From article PMC11549370, “Two distinct regulatory pathways govern Cct2-Atg8 binding in the process of solid aggrephagy” (EMBO Reports, 2024)
These are yes or no findings as the source states them, for the method shown. For some assays here: In cells and extracts the contact can be indirect. Some entries that bind do so weakly or less than the wild type. For some assays here: Tags and fused reporters may be left off the sequences shown.

Amino acid sequences for entries named in this document (tags omitted). Residues count along the entry.
UniProt Q9BXW4, residues 1-126: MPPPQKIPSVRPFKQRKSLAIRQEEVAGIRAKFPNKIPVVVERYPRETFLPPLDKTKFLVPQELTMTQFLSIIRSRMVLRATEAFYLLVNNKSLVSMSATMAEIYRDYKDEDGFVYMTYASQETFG
UniProt P39076: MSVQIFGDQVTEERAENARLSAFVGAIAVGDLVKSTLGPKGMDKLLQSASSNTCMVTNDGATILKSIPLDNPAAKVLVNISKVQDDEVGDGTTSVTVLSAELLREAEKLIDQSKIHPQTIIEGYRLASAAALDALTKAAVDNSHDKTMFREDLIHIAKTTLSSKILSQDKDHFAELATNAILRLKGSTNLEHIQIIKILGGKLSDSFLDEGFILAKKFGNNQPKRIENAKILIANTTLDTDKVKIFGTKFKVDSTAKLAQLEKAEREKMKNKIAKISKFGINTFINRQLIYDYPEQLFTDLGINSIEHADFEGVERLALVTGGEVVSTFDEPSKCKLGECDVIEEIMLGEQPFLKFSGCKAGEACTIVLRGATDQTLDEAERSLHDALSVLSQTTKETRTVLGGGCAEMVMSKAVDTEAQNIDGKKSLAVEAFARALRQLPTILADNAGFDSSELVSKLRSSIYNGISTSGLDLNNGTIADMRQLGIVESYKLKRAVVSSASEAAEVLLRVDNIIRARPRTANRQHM
UniProt P12612: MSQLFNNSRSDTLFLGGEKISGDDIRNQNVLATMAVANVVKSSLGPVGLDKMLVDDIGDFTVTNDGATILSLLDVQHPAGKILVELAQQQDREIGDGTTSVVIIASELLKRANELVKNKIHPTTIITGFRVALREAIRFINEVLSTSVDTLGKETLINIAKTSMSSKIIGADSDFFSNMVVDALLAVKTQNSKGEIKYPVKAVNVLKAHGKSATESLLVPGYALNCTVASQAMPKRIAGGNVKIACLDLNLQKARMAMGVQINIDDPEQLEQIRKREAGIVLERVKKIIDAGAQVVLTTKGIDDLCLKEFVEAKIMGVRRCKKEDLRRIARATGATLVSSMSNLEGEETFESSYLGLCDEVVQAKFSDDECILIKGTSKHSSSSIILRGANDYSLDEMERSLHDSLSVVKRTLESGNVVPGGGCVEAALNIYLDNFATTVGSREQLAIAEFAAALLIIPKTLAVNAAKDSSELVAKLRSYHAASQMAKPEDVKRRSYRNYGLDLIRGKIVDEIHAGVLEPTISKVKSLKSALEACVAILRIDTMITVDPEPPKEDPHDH
UniProt P39078: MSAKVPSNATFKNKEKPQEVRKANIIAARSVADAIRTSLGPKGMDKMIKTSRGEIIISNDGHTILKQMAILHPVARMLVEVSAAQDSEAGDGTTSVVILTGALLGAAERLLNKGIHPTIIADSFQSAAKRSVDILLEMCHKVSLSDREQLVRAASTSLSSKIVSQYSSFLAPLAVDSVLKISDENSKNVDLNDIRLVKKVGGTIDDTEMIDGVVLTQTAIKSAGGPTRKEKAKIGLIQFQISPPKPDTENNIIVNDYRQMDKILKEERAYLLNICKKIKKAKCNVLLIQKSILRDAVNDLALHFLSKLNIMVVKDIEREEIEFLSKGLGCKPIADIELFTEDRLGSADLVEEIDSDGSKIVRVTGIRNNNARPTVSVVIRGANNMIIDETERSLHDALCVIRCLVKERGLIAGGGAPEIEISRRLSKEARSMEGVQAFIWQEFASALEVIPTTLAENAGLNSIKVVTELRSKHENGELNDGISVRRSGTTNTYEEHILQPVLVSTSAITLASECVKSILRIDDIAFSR
UniProt P40413: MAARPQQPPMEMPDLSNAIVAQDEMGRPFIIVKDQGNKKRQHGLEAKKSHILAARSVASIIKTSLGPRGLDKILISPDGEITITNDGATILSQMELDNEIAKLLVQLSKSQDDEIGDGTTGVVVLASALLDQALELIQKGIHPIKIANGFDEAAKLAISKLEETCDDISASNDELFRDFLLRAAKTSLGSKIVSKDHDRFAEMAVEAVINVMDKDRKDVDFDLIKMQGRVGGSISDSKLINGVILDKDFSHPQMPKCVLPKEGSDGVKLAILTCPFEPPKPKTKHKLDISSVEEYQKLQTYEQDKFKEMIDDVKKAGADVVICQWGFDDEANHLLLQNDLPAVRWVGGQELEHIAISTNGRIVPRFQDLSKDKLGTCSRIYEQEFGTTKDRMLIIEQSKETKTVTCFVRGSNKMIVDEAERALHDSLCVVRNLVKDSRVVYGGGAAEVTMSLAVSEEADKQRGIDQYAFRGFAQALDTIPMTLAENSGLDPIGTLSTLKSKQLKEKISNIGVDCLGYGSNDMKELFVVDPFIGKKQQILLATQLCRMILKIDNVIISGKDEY
UniProt P47079: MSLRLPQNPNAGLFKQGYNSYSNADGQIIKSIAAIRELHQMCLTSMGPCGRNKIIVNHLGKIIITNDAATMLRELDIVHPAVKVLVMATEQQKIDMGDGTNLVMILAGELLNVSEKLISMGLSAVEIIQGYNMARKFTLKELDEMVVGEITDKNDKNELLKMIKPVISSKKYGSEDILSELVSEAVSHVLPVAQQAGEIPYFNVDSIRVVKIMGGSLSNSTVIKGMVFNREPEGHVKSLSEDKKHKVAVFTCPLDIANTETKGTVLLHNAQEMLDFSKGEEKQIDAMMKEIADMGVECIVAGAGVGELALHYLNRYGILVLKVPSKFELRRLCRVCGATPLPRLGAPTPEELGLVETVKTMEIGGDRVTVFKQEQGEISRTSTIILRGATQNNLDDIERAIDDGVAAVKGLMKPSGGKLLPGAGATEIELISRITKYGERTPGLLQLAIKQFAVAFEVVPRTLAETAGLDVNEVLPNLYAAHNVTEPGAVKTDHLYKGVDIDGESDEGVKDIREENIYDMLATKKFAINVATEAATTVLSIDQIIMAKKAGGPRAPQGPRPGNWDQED
UniProt Q8TDY2: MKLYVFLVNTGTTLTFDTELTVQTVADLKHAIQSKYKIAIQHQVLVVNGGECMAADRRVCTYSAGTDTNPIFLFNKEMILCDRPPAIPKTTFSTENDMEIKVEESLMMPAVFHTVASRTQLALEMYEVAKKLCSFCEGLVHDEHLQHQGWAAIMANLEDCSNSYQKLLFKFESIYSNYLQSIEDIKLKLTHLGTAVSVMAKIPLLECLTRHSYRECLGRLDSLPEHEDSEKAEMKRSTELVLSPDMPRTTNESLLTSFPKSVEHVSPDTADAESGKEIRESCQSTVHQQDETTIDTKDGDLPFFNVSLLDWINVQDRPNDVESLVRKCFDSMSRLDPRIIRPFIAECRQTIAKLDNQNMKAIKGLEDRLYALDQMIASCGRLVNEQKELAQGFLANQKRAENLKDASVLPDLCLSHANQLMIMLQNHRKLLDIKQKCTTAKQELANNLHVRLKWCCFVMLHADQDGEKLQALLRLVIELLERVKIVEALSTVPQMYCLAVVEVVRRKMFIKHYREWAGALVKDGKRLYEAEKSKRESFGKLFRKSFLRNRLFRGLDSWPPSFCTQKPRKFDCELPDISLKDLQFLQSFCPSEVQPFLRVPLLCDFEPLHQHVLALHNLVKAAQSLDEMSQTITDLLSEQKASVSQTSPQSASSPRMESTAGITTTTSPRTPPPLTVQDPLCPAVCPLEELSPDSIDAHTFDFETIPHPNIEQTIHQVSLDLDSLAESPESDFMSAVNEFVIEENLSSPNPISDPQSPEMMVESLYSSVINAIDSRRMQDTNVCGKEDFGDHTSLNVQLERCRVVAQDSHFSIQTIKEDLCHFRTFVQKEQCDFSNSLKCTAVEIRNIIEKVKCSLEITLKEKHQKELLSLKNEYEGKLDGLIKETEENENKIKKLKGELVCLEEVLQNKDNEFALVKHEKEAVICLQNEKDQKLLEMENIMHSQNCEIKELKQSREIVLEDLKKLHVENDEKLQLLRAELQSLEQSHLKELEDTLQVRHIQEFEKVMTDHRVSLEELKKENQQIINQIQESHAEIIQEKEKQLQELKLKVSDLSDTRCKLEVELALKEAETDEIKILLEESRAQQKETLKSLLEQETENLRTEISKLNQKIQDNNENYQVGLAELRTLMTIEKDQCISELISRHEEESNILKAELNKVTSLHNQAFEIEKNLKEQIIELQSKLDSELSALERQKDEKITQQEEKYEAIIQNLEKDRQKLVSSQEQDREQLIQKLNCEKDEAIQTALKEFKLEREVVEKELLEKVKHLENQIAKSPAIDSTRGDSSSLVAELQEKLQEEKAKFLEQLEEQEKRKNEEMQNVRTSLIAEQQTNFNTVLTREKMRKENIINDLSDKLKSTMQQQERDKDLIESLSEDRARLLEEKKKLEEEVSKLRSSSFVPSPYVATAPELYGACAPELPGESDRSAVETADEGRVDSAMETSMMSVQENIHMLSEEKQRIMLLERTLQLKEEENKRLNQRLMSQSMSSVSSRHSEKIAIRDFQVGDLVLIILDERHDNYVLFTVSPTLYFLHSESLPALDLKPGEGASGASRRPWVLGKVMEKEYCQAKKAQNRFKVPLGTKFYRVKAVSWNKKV

Columns and labels:
[1] = target: T1, 3×FLAG-Atg8 (S. cerevisiae) (UniProt P38182); test: co-IP; lysates of ape1∆ atg11∆ yeast with Ape1 P22L, nutrient-rich conditions; anti-FLAG agarose beads, western blot with anti-HA
T1 sequence: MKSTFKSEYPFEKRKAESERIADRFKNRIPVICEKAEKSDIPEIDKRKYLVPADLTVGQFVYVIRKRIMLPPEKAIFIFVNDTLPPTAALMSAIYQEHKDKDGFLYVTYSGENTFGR

[2] = target: T2, Atg1-3×FLAG (S. cerevisiae) (UniProt P53104); test: co-IP; lysates of yeast co-expressing the tagged proteins, nutrient-rich conditions, with or without Ape1 P22L; anti-FLAG or anti-HA agarose beads, western blot; also done in atg1∆, atg2∆, atg14∆ and atg8∆ strains
T2 sequence: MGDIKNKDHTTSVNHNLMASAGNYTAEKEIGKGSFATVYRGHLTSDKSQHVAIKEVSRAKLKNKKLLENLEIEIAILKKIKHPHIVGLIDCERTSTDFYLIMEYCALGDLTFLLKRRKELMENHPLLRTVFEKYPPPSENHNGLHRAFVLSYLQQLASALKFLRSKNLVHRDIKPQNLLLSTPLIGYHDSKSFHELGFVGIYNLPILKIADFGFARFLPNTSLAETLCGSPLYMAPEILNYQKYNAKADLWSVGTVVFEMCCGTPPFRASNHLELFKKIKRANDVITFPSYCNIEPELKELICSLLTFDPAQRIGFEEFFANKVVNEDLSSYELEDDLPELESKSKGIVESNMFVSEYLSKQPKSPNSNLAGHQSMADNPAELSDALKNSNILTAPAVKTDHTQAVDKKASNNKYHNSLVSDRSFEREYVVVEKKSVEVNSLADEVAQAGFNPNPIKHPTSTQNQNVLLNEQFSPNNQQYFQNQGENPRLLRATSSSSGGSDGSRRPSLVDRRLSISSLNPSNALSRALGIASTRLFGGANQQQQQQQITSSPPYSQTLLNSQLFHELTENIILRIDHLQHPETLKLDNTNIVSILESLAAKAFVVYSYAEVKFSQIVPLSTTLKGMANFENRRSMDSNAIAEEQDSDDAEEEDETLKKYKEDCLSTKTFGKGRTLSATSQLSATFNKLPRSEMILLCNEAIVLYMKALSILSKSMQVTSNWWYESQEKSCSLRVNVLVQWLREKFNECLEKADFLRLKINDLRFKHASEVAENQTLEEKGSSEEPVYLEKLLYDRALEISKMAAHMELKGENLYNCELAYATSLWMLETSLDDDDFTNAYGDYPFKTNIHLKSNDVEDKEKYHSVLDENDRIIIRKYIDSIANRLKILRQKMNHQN

[3] = target: T3, Atg11-3×FLAG (S. cerevisiae) (UniProt Q12527); test: as above
T3 sequence: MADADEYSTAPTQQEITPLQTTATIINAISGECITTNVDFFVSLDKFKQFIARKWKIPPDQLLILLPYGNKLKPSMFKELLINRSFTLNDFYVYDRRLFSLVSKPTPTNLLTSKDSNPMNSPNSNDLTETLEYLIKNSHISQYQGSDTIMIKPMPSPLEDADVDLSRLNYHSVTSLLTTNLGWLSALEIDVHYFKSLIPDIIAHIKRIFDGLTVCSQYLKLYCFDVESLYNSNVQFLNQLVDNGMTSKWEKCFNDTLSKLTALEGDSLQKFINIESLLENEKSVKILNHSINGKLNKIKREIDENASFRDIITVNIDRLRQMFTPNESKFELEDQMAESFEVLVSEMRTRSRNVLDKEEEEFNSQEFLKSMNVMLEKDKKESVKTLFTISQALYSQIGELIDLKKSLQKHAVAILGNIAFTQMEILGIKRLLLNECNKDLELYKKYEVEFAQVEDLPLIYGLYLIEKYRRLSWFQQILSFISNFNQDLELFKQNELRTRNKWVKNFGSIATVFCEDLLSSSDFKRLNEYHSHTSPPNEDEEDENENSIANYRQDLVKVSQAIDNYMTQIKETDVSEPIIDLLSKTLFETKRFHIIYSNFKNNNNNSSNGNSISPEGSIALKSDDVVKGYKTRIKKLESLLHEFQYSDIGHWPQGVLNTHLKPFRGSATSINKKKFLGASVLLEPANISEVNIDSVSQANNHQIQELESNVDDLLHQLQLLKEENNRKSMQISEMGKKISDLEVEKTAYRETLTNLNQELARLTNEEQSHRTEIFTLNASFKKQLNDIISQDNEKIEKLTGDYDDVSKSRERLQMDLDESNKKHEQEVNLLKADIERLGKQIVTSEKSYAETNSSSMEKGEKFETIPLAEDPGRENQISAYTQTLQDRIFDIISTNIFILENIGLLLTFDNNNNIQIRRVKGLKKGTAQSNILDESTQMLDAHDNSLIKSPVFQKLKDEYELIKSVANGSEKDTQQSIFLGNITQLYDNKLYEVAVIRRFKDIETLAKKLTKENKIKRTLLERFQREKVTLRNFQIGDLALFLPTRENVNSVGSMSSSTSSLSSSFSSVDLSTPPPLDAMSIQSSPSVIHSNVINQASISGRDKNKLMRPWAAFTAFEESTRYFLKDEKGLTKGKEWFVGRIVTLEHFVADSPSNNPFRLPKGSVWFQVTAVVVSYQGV

[4] = target: T1, 3×FLAG-Atg8 (S. cerevisiae); test: as above
[5] = target: T4, FLAG-CCT2 (human) (UniProt P78371); test: co-IP; HEK293T co-transfected with the tagged proteins and SOD1 G93A-GFP; lysis in 20 mM Tris-HCl pH 7.5, 150 mM NaCl, 1 mM EDTA, 0.5% NP40; anti-FLAG or anti-HA agarose, 4 h, 4 °C; western blot
T4 sequence: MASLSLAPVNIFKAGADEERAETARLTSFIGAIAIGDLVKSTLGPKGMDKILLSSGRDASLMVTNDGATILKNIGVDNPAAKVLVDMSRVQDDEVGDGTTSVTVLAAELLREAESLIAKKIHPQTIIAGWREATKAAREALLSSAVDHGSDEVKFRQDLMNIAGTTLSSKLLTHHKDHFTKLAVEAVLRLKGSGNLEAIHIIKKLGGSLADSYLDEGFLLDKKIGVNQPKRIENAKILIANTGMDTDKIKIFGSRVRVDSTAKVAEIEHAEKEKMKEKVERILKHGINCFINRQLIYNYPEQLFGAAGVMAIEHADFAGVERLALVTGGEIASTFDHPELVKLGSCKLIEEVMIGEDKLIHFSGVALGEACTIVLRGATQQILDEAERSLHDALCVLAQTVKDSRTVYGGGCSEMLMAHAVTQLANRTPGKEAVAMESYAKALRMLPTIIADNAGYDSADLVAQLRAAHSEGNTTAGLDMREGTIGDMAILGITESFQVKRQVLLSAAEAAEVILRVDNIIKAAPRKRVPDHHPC

[6] = target: FLAG-LC3C (UniProt Q9BXW4); test: co-IP; WT, FIP200 KO or WIPI2 KO HeLa cells co-transfected with FLAG-LC3C, HA-CCT2 and SOD1 G93A-GFP; anti-FLAG agarose, western blot with anti-HA
[7] = target: FLAG-LC3C (UniProt Q9BXW4); test: co-IP; HEK293T co-transfected with the tagged proteins and SOD1 G93A-GFP; lysis in 20 mM Tris-HCl pH 7.5, 150 mM NaCl, 1 mM EDTA, 0.5% NP40; anti-FLAG or anti-HA agarose, 4 h, 4 °C; western blot
[8] = target: FLAG-LC3C (UniProt Q9BXW4); test: co-IP; WT or ULK1 KO MEF cells co-transfected with FLAG-LC3C, HA-CCT2 and SOD1 G93A-GFP; anti-FLAG agarose, western blot with anti-HA
[9] = target: GST-LC3C (UniProt Q9BXW4); test: pull-down; in vitro GST pulldown: GST-tagged protein on GST beads, prey added in binding buffer B (1 mM EDTA, 1 mM EGTA, 150 mM NaCl, 1% Triton X-100 in 1×PBS), 3 h, 4 °C; SDS-PAGE, Coomassie staining; both purified

Molecule: 3×HA-Cct2 (from UniProt P39076 1-527)
- binding [1]: binds weakly
- binding [2]: binds
- binding [3]: binds
- binding [4]: binds

Molecule: HA-Cct1 (from UniProt P12612 1-559)
- binding [4]: no binding

Molecule: HA-Cct4 (from UniProt P39078 1-528)
- binding [4]: no binding

Molecule: HA-Cct5 (from UniProt P40413 1-562)
- binding [4]: no binding

Molecule: HA-Cct8 (from UniProt P47079 1-568)
- binding [4]: no binding

Molecule: HA-FIP200 (from UniProt Q8TDY2 1-1594)
- binding [5]: binds

B1: HA-CCT2 (protein, UniProt P78371 1-535)
chain: MASLSLAPVNIFKAGADEERAETARLTSFIGAIAIGDLVKSTLGPKGMDKILLSSGRDASLMVTNDGATILKNIGVDNPAAKVLVDMSRVQDDEVGDGTTSVTVLAAELLREAESLIAKKIHPQTIIAGWREATKAAREALLSSAVDHGSDEVKFRQDLMNIAGTTLSSKLLTHHKDHFTKLAVEAVLRLKGSGNLEAIHIIKKLGGSLADSYLDEGFLLDKKIGVNQPKRIENAKILIANTGMDTDKIKIFGSRVRVDSTAKVAEIEHAEKEKMKEKVERILKHGINCFINRQLIYNYPEQLFGAAGVMAIEHADFAGVERLALVTGGEIASTFDHPELVKLGSCKLIEEVMIGEDKLIHFSGVALGEACTIVLRGATQQILDEAERSLHDALCVLAQTVKDSRTVYGGGCSEMLMAHAVTQLANRTPGKEAVAMESYAKALRMLPTIIADNAGYDSADLVAQLRAAHSEGNTTAGLDMREGTIGDMAILGITESFQVKRQVLLSAAEAAEVILRVDNIIKAAPRKRVPDHHPC
- binding [6]: binds
- binding [7]: binds
- binding [8]: binds

B2: TF-hCCT2 (protein, UniProt P78371 1-535)
chain: MASLSLAPVNIFKAGADEERAETARLTSFIGAIAIGDLVKSTLGPKGMDKILLSSGRDASLMVTNDGATILKNIGVDNPAAKVLVDMSRVQDDEVGDGTTSVTVLAAELLREAESLIAKKIHPQTIIAGWREATKAAREALLSSAVDHGSDEVKFRQDLMNIAGTTLSSKLLTHHKDHFTKLAVEAVLRLKGSGNLEAIHIIKKLGGSLADSYLDEGFLLDKKIGVNQPKRIENAKILIANTGMDTDKIKIFGSRVRVDSTAKVAEIEHAEKEKMKEKVERILKHGINCFINRQLIYNYPEQLFGAAGVMAIEHADFAGVERLALVTGGEIASTFDHPELVKLGSCKLIEEVMIGEDKLIHFSGVALGEACTIVLRGATQQILDEAERSLHDALCVLAQTVKDSRTVYGGGCSEMLMAHAVTQLANRTPGKEAVAMESYAKALRMLPTIIADNAGYDSADLVAQLRAAHSEGNTTAGLDMREGTIGDMAILGITESFQVKRQVLLSAAEAAEVILRVDNIIKAAPRKRVPDHHPC
- binding [9]: binds

B3: TF-hCCT2 S458A (protein, UniProt P78371 1-535)
chain: MASLSLAPVNIFKAGADEERAETARLTSFIGAIAIGDLVKSTLGPKGMDKILLSSGRDASLMVTNDGATILKNIGVDNPAAKVLVDMSRVQDDEVGDGTTSVTVLAAELLREAESLIAKKIHPQTIIAGWREATKAAREALLSSAVDHGSDEVKFRQDLMNIAGTTLSSKLLTHHKDHFTKLAVEAVLRLKGSGNLEAIHIIKKLGGSLADSYLDEGFLLDKKIGVNQPKRIENAKILIANTGMDTDKIKIFGSRVRVDSTAKVAEIEHAEKEKMKEKVERILKHGINCFINRQLIYNYPEQLFGAAGVMAIEHADFAGVERLALVTGGEIASTFDHPELVKLGSCKLIEEVMIGEDKLIHFSGVALGEACTIVLRGATQQILDEAERSLHDALCVLAQTVKDSRTVYGGGCSEMLMAHAVTQLANRTPGKEAVAMESYAKALRMLPTIIADNAGYDAADLVAQLRAAHSEGNTTAGLDMREGTIGDMAILGITESFQVKRQVLLSAAEAAEVILRVDNIIKAAPRKRVPDHHPC
- binding [9]: binds
